The text below walks through data of the supplement of paper PMC11417369.

The other results are listed elsewhere or left out.

The experiment deals with PfSIP2 AP2 domain 1 (GST-tagged). Description: gcPBM binding intensity (ln(normalized median fluorescence intensity)); higher = stronger DNA binding. The gist of the method:
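GST-tagged P. falciparum DNA-binding domains produced in E. coli were incubated for 1 h on an Agilent 4 × 180k array of primer-extended double-stranded 36-bp intergenic genomic probes with negative controls. Binding intensity is the highest Masliner-normalised natural-log median intensity across replicate spots of either probe orientation, with bound protein detected by Alexa488 anti-GST antibody at 488 nm.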
Consider “TAATGTATTATTTAATGTACTTAAAAAATAAATAAA [XGTACX_site3296]”, for which the “gcPBM binding intensity (ln)” value was found to be 6.96. Next, “ACCTTTAATAAATACACACACATAAAAAAAATATAT [CACACA_site5086]”: 7.94; “TATTATATGAATAATTGTACGAAATTTAAAAGACAA [XGTACX_site7558]”: 7.36. With “GGGGAGCTATCTCCTGCACACACAATTTTTTTTTTT [CACACA_site8703]” the figure was 7.45; with “CACAAATATATACATACACACATATATACGCATATA [CACACA_site395]”, 7.29. Next, “ATATATTCATTTTTATGTACGTAAATTGTAAATTGG [XGTACX_site8242]”: 7.05. Consider “AAAATAATAATAAAAAGTACATGTGTATATAATAAA [XGTACX_site754]”, for which the “gcPBM binding intensity (ln)” value came out at 7.27. Next, “TGCATTATTTTATGAAGTACATATGAACAAAAAATT [XGTACX_site2185]”: 7.11. Turning to “AAAGAAGGTAAACACACACACACACCGACAAAAAAA [CACACA_site9255]”, the “gcPBM binding intensity (ln)” value amounted to 7.02. Next, “AAATTATCCAAAAATTGTACTTAAAACAACATAAAA [XGTACX_site6238]”: 6.92. As to “ACCATTTGTAGGTAAACACACATTATTCTTAATATC [CACACA_site5453]”, the “gcPBM binding intensity (ln)” value came to 7. With “TTTCTCTTATTCCAATCTATAATAAGTATCAATATT [CACACA_negctrl_site179]” the figure was 6.91; with “AATATTAAACAAATGAAAAAAAAATATATATTATAT [CACACA_negctrl_site742]”, 6.97. For the sequence “TATGTTTTTCGGTATGCATGCATATGCTTAATAATA [TGCATGCA_site184]”, the “gcPBM binding intensity (ln)” value came to 7.13. With “AAAATAACACAAATGGGTACATATTATATTAAATAA [XGTACX_site7027]” the figure was 6.86; with “AATATATATATGATTATATATATATATATATATATA [GTGCAC_negctrl_site290]”, 9.18. With “TTTAATTAAAATATATGTACATATATATATATATAT [XGTACX_site4517]” the figure was 9.11.

Consider “GGAGAAAAAAAAAAAAAACACACGGTACATTCAAAG [CACACA_site1503]”, for which the “gcPBM binding intensity (ln)” value amounted to 6.81. As to “TTTTTTTCGTATATTACACACTATATATAGAAATTA [CACACA_site298]”, the “gcPBM binding intensity (ln)” value amounted to 7.05. With “TTATTAAAGGAAAAATGTACATATAAATGAATATGT [XGTACX_site23]” the figure was 7.07. As to “AAAAAATGTAAATATAAACAACCAAAGGGGGTATAC [GTGCAC_negctrl_site465]”, the “gcPBM binding intensity (ln)” value turned out to be 6.99.

Regarding “TACGTGAAGTTATATACACACATAAATATGTCTGTA [CACACA_site7463]”, the “gcPBM binding intensity (ln)” value was 6.68. Next, “ATAATATTTTATGGTTGTACTTTTAGTTCTTTTTTT [XGTACX_site5756]”: 6.77; “ATTAAATATATTTTGCGTACACAAAAAAATACGTTC [XGTACX_site3862]”: 7.38. With “TTAAAGTATAACTGTACATGCGAGTAAAAGAATGAC [TGCATGCA_site899]” the figure was 7.82; with “GAAAAAAAACACATTGTGCACTTTTCCTTAAGTATA [GTGCAC_site9475]”, 9.56. Next, “AAAAAAAAAAAGCACACACACATATGCGTATATATA [CACACA_site954]”: 7.05. As to “TTAAGAAACAAAGAAAGTACACAACATAATATAGAA [XGTACX_site477]”, the “gcPBM binding intensity (ln)” value was found to be 7.26.

With “TTAATAATAAAAAGGAGTACACTAATATACTATAAA [XGTACX_site2346]”, the “gcPBM binding intensity (ln)” value worked out at 7.25. Next, “ATATAATATATATATAAACACACAAAAAAAATTATA [CACACA_site8434]”: 7.05; “AATAAAATCATCTATACACACAAAAAAAATAAGAAA [CACACA_site2101]”: 6.8. In the case of “AATAACCACGGACACACACACATATATATATATATA [CACACA_site5873]”, the “gcPBM binding intensity (ln)” value came to 9.39. Next, “TACAACCTTATAATTAGTACTTAGTTATGCTGTAAA [XGTACX_site6052]”: 6.68; “TTTATTTGTGCATATACACACTTAAATATGTTTATT [CACACA_site7772]”: 7.65.

As to “TTTAATTTTTTTTATAGTACATAAAAAATAAAAAAA [XGTACX_site5631]”, the “gcPBM binding intensity (ln)” value turned out to be 6.82. As for ATTATAATACTTTGTATGCACTAATCAATTATTAAA, the “gcPBM binding intensity (ln)” value came to 8.25. With “TTTGTTATGGTTTTCTCACACATATATATATATATA [CACACA_site4617]” the figure was 9.58. Next, “ACATAAAATTGGAGCAAACACACAAGGTTGAAATTA [CACACA_site505]”: 6.85; “CCGATATAATGGAAAACACACAAAAGATATTTATAT [CACACA_site7293]”: 6.8; “CTGTAAAAAATATAAACACACATAGAAATATATAAA [CACACA_site340]”: 6.98.

On to “CCTCATAAGTTCTTATGTACGTATTGTTCACCTTTA [XGTACX_site6640]”, for which the “gcPBM binding intensity (ln)” value was 6.87.

Regarding “GAATTATAAATTATAGTGCATAAAATTATGGCATAA [GTGCAC_site9938]”, the “gcPBM binding intensity (ln)” value came out at 8.52. With “TCAAAACATTATTCCATACACACCATACTTTTTAAT [CACACA_site2770]” the figure was 7.14; with “TTGAATTATAAGAATAAACACACAAGCTTAAAAAAA [CACACA_site8318]”, 6.73; with “TATTTAAATTTGTATAATGGACGAATTATATAGAAA [GTGCAC_negctrl_site650]”, 7.03.

On to “CCCACAGACGGACACACACACATATATATATATATA [CACACA_site4351]”, for which the “gcPBM binding intensity (ln)” value was determined as 9.4.

Consider “TAAAAAATAAAATACACACACATATATATATATATA [CACACA_site1323]”, for which the “gcPBM binding intensity (ln)” value worked out at 9.38. With “GAGGGAAAAAATAATCGTACAAAGAAAAAAAAAAAT [XGTACX_site7361]” the figure was 6.98; with “TATATTCTTTTTTTAACACACAAAAAAAATAAAATA [CACACA_site1898]”, 7.16. With “AAAAAAATTAAAGATTGTACTTGATTTTTCATTTTA [XGTACX_site6685]” the figure was 6.69; with “AAAGAATTGTATAAAAGTACATATTTGTTTGTTTTA [XGTACX_site7380]”, 6.85; with “TTTTTTTCATAAATTAGGTAATGTCGCAGGGGGACA [TGCATGCA_negctrl_site556]”, 7.96. As for CTTTAATATATTTAAGTGCAAAACTAATATGTAAAG, the “gcPBM binding intensity (ln)” value stood at 8.54. Next, “TATATATTATATATATGTACTTATTCATATATATAA [XGTACX_site3860]”: 7.22; “AAAGAAAAAGAAAAAGAAAAAATAAAATAAAATAAA [CACACA_negctrl_site872]”: 6.64. Next, “TATTTAAAAACAAAAAGTACTAATATATATTTATAC [XGTACX_site1422]”: 6.96. Turning to “GACTGAACAACATAATGTACATTTATAAGTATATAT [XGTACX_site3813]”, the “gcPBM binding intensity (ln)” value came to 7.15. With “AGTAGTATGGAGAAAAGTACATAGTATCTGATAACC [XGTACX_site2040]” the figure was 7.12. With “TTTTCTATATAGTGTTGTACATTATTGTGTAAAAAT [XGTACX_site3223]” the figure was 7.11; with “ATAAAATTGGAGCAAACACACAAGGTTGAAATTAAC [CACACA_site506]”, 7.09; with “ATATTTTATACTTGCACACAAAATATATTAAAATGG [CACACA_site5139]”, 7.33. With “TTATGTTGTAAATGCACACATACAAATACATATACA [CACACA_site1368]” the figure was 7.35. As to “TACAATATAAAATACACACGCACACCGAAAAAAAAA [CACACA_site5865]”, the “gcPBM binding intensity (ln)” value was found to be 7.24.

With “AAGAAAAAAAAGATAATAATAATAATAATAAAATGA [TGCATGCA_negctrl_site398]”, the “gcPBM binding intensity (ln)” value was determined as 6.82. As to “ATTTATTAAAAGAAATGTACAGAAAATGTTTGGAAT [XGTACX_site7187]”, the “gcPBM binding intensity (ln)” value came to 7.21. Regarding “ATTTAATATCACAATATATTTTTTACCCTTATCAGC [CACACA_negctrl_site491]”, the “gcPBM binding intensity (ln)” value came to 6.95. Next, “TATATGGTATGTATTACACACATATCACATATATAT [CACACA_site3045]”: 6.96; “TGGTAAATTGAGAATCGTACATTAAAAAACATAAAA [XGTACX_site3253]”: 7.05; “GGAATGGTACATGATACACACACGCACATATAAATA [CACACA_site7581]”: 7.04. With “ATAAAACAAGCAAATCGTACAAAAGGATAATATATA [XGTACX_site5592]” the figure was 6.9; with “ATGTATGGTTTATATGTTCATTTGTTCACCTATTTA [CACACA_negctrl_site1533]”, 6.89; with “AAAAAAAAAAAAAACACACACACACCCATACCCATA [CACACA_site5577]”, 7.41. Consider “ATATATATTTAAGAGGGTACAAAAATTTATGAGCAT [XGTACX_site6156]”, for which the “gcPBM binding intensity (ln)” value is 7.18.

Take “TTAGGTAGAAAAAAGACACACACATTATATATATAT [CACACA_site8016]”: the “gcPBM binding intensity (ln)” value amounted to 8.8. Next, “TCTTTGGTAATATATATGTATAAATATAAATATATA [CACACA_negctrl_site1566]”: 6.99. Next, “ATATATATATATGTTAGTACATAACAAGTGTGCATA [XGTACX_site1527]”: 9.09.

As for GATAAAATGAGACCAGTGCATTATTAGTTGTACACC, the “gcPBM binding intensity (ln)” value worked out at 8.33. With “TTTTTTGCTAAGTGTACACAAATGTTTATTAATTTA [CACACA_site5859]” the figure was 7.48; with “TGTGCTTATCCTAACACACACAACATATAAGAAAAA [CACACA_site3319]”, 7.19.

On to “AAAAAATAAAAAATATGTACACATTCAAAATTTTAC [XGTACX_site8479]”, for which the “gcPBM binding intensity (ln)” value is 6.91. With “TATACATATTTATACACACACACATATATTTATATA [CACACA_site6727]” the figure was 7.11; with “AAAAAGAAAAAAAACACACACAAATATAAATAAATA [CACACA_site1183]”, 6.92. With “ATATATATATATATATGTACATATTACATTACTTAT [XGTACX_site749]” the figure was 9.53; with “CAAATACACCAACACACACACACAAAAAAAAAAAAA [CACACA_site514]”, 7.14; with “TAAGTACGACTTGACACACATACACATATATATATA [CACACA_site1286]”, 9.3.

For the sequence “ATTACCAACAGATCTTGTACATATTAAAGCATCTTA [XGTACX_site2361]”, the “gcPBM binding intensity (ln)” value is 6.99.

As to “ATATACAAAGAAGCAGTGCATATTTTCTTATTTATG [GTGCAC_site9567]”, the “gcPBM binding intensity (ln)” value amounted to 8.02. Turning to “TGAAAGAATAGAATGAGTACTAATTTAAATTACACT [XGTACX_site1120]”, the “gcPBM binding intensity (ln)” value is 6.72. With “TTGATTTCATTTTAAGTGCATAACTAATATTATATA [GTGCAC_site9713]” the figure was 8.07.
